{"source": "PubChem BioAssay AID1345082", "about": "(National Center for Advancing Translational Sciences (NCATS), 2018)", "note": "Where “and” joins values, the source holds several entries; their conditions need not be identical. Identical values can stand only once. The whole screen tested about 94,000 compounds, of which about 4,000 (4.3%) were called active. This list was built around the results that the source calls inconclusive (neither active nor inactive); the mix of calls is not that of the screen. Calls come from the whole dose curve; as a rule, active = well fitted inhibition curve with a large enough effect; inconclusive = small, poorly fitted or top-dose-only effect; inactive = no such curve, though single readings can be large or run the other way. Potencies of inconclusive entries are doubtful fits and often do not repeat. % is set by controls: 0 for no effect and ±100 for the full control effect; potency is the fitted concentration of half-maximal effect; tags give direction and shape of the fitted curve.", "data": [{"experiment": "Cytotoxic Profiling in NIH 3T3 Cell Line of Diverse Libraries Using Quantitative High-Throughput Screening; note: nearly all actives have a fitted effect of over 55% in size", "details": "NIH 3T3 viability, CellTiter-Glo ATP luminescence, 48-72 h; activity change, negative = cytotoxicity: at 96.7 µM (top of the series) unless noted; series mostly up to 96.7 µM", "text": "Cell-based phenotypic screening is a commonly used approach to discover biological pathways, novel drug targets, chemical probes and high-quality hit-to-lead molecules. Many hits identified from high-throughput screening campaign are ruled out through a series of follow-up potency, selectivity/specificity, and cytotoxicity assays. Prioritization of molecules with little or no cytotoxicity for a more in-depth downstream evaluation influence the future direction of projects, so cytotoxicity profiling of the screening libraries at early stage is essential for increasing the likelihood of candidate success. In this study, we analyzed results from a cell-based cytotoxicity screening campaign, comprising nearly 10,000 compounds in NCATS annotated libraries, and over 100,000 compounds in a diversity library, evaluated in four normal cell lines (HEK 293, NIH 3T3, CRL-7250 and HaCat) and a cancer cell line (KB 3-1, a HeLa subline) with overall screening outcomes, hit rates, pan-activity and selectivity. For the annotated library, we also examined the primary targets and mechanistic pathways regularly associated with cell death. To our knowledge, this is the first study to use high-throughput screening to profile large libraries for cytotoxicity assessment in both normal and cancer cell lines. In summary, the results generated here constitutes a valuable resource for the scientific community and provides insight on identifying cytotoxic compounds with particular mechanisms of action, and prioritizing compounds with suitable cytotoxicity profile for further evaluation.\nNIH 3T3 cells were seeded into white 1536-well plates using a Multidrop Combi peristaltic dispenser (ThermoFisher, Waltham, MA) at a density of 400 cells/well in 5 uL of medium respectively. A pintool (Kalypsys) was used to transfer 23 nL of compound solution to the 1536-well assay plates. After 48 or 72 hr incubation at 37 degree Celsius, 5% CO2 and 95% humidity, 2.5 uL of CellTiter-Glo (Promega) was dispensed into each well using a dispenser (Aspect Automation, St. Paul, MN) with solenoid valves (Lee Valves, Westbrook CT). Plates were left at room temperature for 10 min before imaging the ATP-coupled luminescence using a ViewLux microplate imager (PerkinElmer, Waltham, MA).", "values": [{"smiles": "CC(C)c1cccc(NC(=O)CN2C(=O)C(c3ccccc3)=NC2(C)C)c1", "Potency": "inconclusive: 31.6 µM [inhibitor, partial curve, poor fit]"}, {"smiles": "CC(C)NC(=O)N1CCCC(C(=O)N2CCC(c3nc4ncccc4[nH]3)C2)C1", "note": "(stereo not given)", "activity change, negative = cytotoxicity": "inactive: -8.65%"}, {"smiles": "CC(=O)N1CCC(N2C(=O)c3c(c(C)nn3-c3ccccc3)C2C(C)C)CC1", "note": "(stereo not given)", "Potency": "inconclusive: 56.2 µM [inhibitor, partial curve, poor fit]"}, {"smiles": "O=C(c1ccccc1OCC1CCCN(Cc2c[nH]c3ccccc23)C1)N1CCCCC1", "note": "(stereo not given)", "Potency": "inconclusive: 44.7 µM [inhibitor, partial curve, poor fit]"}, {"smiles": "O=C1[C@H]2CN(Cc3ccccc3Cl)C[C@H]2C(=O)N1Cc1ccc2c(c1)OCO2", "Potency": "inconclusive: 50.1 µM [inhibitor, partial curve, poor fit]"}, {"smiles": "CCCNC(=O)c1cc2c(=O)[nH]c(-c3ccccc3)cn2n1", "activity change, negative = cytotoxicity": "inactive: -26.7%"}, {"smiles": "CC(C)(C)OCC(O)CN1CCC(=O)N(Cc2ccccc2)Cc2cc3c(cc21)OCO3", "note": "(stereo not given)", "Potency": "inconclusive: 44.7 µM [inhibitor, partial curve, poor fit]"}, {"smiles": "O=C1Nc2ccccc2CN(Cc2ccc(C(F)(F)F)cc2)C12CCNCC2", "Potency": "active: 22.4 µM"}, {"smiles": "O=C(NCC(F)(F)F)c1cc(-c2cccc(C(F)(F)F)c2)c2cccn2n1", "Potency": "inconclusive: 70.8 µM [inhibitor, single point]"}, {"smiles": "O=C(NC1CCN(C(=O)c2ccc(-c3cncnc3)cc2)CC1)c1ccc(Cl)cc1", "Potency": "inconclusive: 35.5 µM [inhibitor, partial curve]"}, {"smiles": "CC(C)CCO[C@H]1COCCN(C(=O)c2ccccc2)C1", "Potency": "inconclusive: 126 µM [inhibitor, partial curve, poor fit]"}, {"smiles": "Cn1cc(-c2nc(N3CCOCC3)cc3c2CN(CC2CC2)C3=O)cn1", "Potency": "active: 10 µM"}, {"smiles": "Cc1ccc(NC(=O)Cn2ccn3nc4c(c3c2=O)CCCCC4)cc1", "Potency": "inconclusive: 44.7 µM [inhibitor, partial curve, poor fit]"}, {"smiles": "Cn1nc(C2CCN(C(=O)c3ccc(F)cc3)CC2)n(Cc2ccccc2)c1=O", "Potency": "inconclusive: 70.8 µM [inhibitor, partial curve, poor fit]"}, {"smiles": "CC1(c2noc(-c3ccccn3)n2)CCN(C(=O)CCCc2nc3ccccc3s2)CC1", "Potency": "inconclusive: 44.7 µM [inhibitor, partial curve, poor fit]"}, {"smiles": "CSCCNC(=O)C1CN(c2ccc(F)cc2)C(=O)N1", "note": "(stereo not given)", "Potency": "inconclusive: 112 µM [inhibitor, single point]"}, {"smiles": "O=[S+]([O-])(NCC1CN(Cc2ccc(O)cc2)CC12CN(c1ccccc1)C2)c1ccccc1", "note": "(stereo not given)", "Potency": "active: 17.8 µM"}, {"smiles": "O=C(NC1CCN(c2ccc3nnc(-c4ccccc4)n3n2)CC1)C1CCCC1", "Potency": "inconclusive: 17.8 µM [inhibitor, partial curve, poor fit]"}, {"smiles": "CCCCn1c(=O)c(C(=O)NCC(F)(F)F)nc2cccnc21", "activity change, negative = cytotoxicity": "inactive: -14.5% [at 138 µM]"}, {"smiles": "Cc1nn(-c2ccccc2)c2c1C(C(C)C)N(C1CCN(C(=O)c3cccnc3)C1)C2=O", "note": "(stereo not given)", "Potency": "inconclusive: 28.2 µM [inhibitor, partial curve, poor fit]"}, {"smiles": "Cc1ccc(C(=O)N2CCC(n3cc(-c4nc(C5CC5)no4)nn3)C2)cc1C", "note": "(stereo not given)", "Potency": "inconclusive: 8.91 µM [inhibitor, full curve, poor fit]"}, {"smiles": "CN1[C@@H](CCC(=O)NCc2ccc(F)cc2)CNC(=O)[C@@H]2[C@H]1CCN2Cc1nc2ccccc2n1C", "Potency": "inconclusive: 70.8 µM [inhibitor, single point]"}, {"smiles": "CCc1noc(-c2cn(C3CCN(C(=O)c4cc(F)cc(F)c4)CC3)nn2)n1", "activity change, negative = cytotoxicity": "inactive: -29.4%"}, {"smiles": "COc1ccc(CC(=O)NCCNC(=O)c2ccc(-c3cccc(C(F)(F)F)c3)cc2)cc1", "activity change, negative = cytotoxicity": "inactive: -24.5%"}, {"smiles": "COC(=O)N1CCCC(C(=O)N2CCC(c3nc4ncccc4[nH]3)CC2)C1", "note": "(stereo not given)", "activity change, negative = cytotoxicity": "inactive: -3.1%"}, {"smiles": "Cc1cc(C)c(C)c(S(=O)(=O)NC2CCN(c3ccc(=O)n(CC4CC4)n3)CC2)c1C", "Potency": "inconclusive: 39.8 µM [inhibitor, partial curve, poor fit]"}, {"smiles": "N#Cc1ccc(S(=O)(=O)N2CCCCCNC(=O)CC2c2ccccc2)cc1", "note": "(stereo not given)", "activity change, negative = cytotoxicity": "inactive: -2.99%"}, {"smiles": "O=C(Nc1ccccc1)c1cnc2n1CCN(CC1CCCC1)CC2", "Potency": "inconclusive: 100 µM [inhibitor, partial curve]"}, {"smiles": "COc1ccccc1-c1ccc(C(=O)N2CCC(N[S+](=O)([O-])c3cccs3)CC2)cc1", "Potency": "inconclusive: 70.8 µM [inhibitor, single point] and inconclusive: 44.7 µM [inhibitor, partial curve, poor fit]"}, {"smiles": "COc1ccccc1-c1cc(C(=O)NCc2c(C)cc(C)[nH]c2=O)c2c(c1)ncn2C", "Potency": "active: 39.8 µM"}, {"smiles": "Cc1cc(C2CCCN2C(=O)c2cc(F)cc(F)c2)on1", "note": "(stereo not given)", "activity change, negative = cytotoxicity": "inactive: -17.1%"}, {"smiles": "Cc1cc2c(-c3ccccc3O)nc(-c3c(C)noc3C)cc2[nH]1", "Potency": "inconclusive: 44.7 µM [inhibitor, partial curve, poor fit]"}, {"smiles": "COC1CN(c2ccc(C)cc2)C12CCN(C(=O)CCCc1ccccc1)CC2", "note": "(stereo not given)", "Potency": "inconclusive: 50.1 µM [inhibitor, partial curve, poor fit]"}, {"smiles": "Cc1nc(N2CCC(C(=O)O)(n3cccn3)CC2)cc(-n2cccn2)n1", "activity change, negative = cytotoxicity": "inactive: 0.0457%"}, {"smiles": "COc1ccc(C(=O)NC2CCN(c3cc(C(F)(F)F)ncn3)CC2)cc1OC", "Potency": "inconclusive: 44.7 µM [inhibitor, partial curve, poor fit]"}, {"smiles": "CN1C(=O)C2(CCN([S+](=O)([O-])c3cccc(C(F)(F)F)c3)C2)c2ccccc21", "note": "(stereo not given)", "Potency": "inconclusive: 50.1 µM [inhibitor, partial curve, poor fit]"}, {"smiles": "C=CCOC(=O)C1=C(C)N(Cc2ccc(F)c(F)c2)C(=O)CC1c1ccccc1Cl", "note": "(stereo not given)", "Potency": "inconclusive: 39.8 µM [inhibitor, partial curve]"}, {"smiles": "O=c1n(-c2ccc([N+](=O)[O-])cc2)nc2n1CCN(Cc1ccsc1)C2", "Potency": "inconclusive: 63.1 µM [inhibitor, partial curve, poor fit]"}, {"smiles": "COC1CCC12CCN(C(=O)Nc1ccccc1F)CC2", "note": "(stereo not given)", "activity change, negative = cytotoxicity": "inactive: -15.9%"}, {"smiles": "Cc1ccc(NC(=O)N2C[C@H](c3nc(-c4cccnc4)no3)[C@@H](C)C2)cc1", "activity change, negative = cytotoxicity": "inactive: -13.8%"}]}]}
